Data as given in article PMC5766103 (PLoS ONE, 2018).

Biological target: T1, IL-17RA-Fc (UniProt Q96F46 33-320)
T1 construct: Interleukin-17 receptor A, bought Fc fusion; source: bought: R&D Systems
Test: ELISA; receptor-Fc coated on the plate (IL-17RA-Fc 2 ug/mL, the others 1 ug/mL in PBS); biotinylated cytokine (IL-17A 250 ng/mL; IL-17C, IL-17E, IL-17F 100 ng/mL) pre-incubated 1 h with peptide (0.128 nM to 10,000 nM), then 30 min at RT on the plate; streptavidin-HRP; percent inhibition
Conditions: both partners purified

B1: human IL-17A (#317-ILB; R&D Systems) (ligand)
chain: not shown
modifications: biotin (EZ Link NHS-Biotin), in the ELISA
notes: human Interleukin-17A, bought recombinant protein; Biotinylated for the ELISA; used without biotin in the HT-29 cell assay; also called biotinylated IL-17A; source: bought: R&D Systems
  binding result: binds
